{
  "source": "PubChem BioAssay AID1159614",
  "about": "(National Center for Advancing Translational Sciences (NCATS), 2016)",
  "note": "About 65 (0.1%) of roughly 45,000 compounds were called active. Calls follow the shape of the dose curve; as a rule, active = well fitted activation curve with a large enough effect; inconclusive = small, poorly fitted or top-dose-only effect; inactive = no such curve, though single readings can be large or run the other way. Some of the results follow.",
  "data": [
    {"target": "Galactocerebrosidase (Homo sapiens) (UniProt P54803)", "sequence (P54803 whole entry, looked up)": "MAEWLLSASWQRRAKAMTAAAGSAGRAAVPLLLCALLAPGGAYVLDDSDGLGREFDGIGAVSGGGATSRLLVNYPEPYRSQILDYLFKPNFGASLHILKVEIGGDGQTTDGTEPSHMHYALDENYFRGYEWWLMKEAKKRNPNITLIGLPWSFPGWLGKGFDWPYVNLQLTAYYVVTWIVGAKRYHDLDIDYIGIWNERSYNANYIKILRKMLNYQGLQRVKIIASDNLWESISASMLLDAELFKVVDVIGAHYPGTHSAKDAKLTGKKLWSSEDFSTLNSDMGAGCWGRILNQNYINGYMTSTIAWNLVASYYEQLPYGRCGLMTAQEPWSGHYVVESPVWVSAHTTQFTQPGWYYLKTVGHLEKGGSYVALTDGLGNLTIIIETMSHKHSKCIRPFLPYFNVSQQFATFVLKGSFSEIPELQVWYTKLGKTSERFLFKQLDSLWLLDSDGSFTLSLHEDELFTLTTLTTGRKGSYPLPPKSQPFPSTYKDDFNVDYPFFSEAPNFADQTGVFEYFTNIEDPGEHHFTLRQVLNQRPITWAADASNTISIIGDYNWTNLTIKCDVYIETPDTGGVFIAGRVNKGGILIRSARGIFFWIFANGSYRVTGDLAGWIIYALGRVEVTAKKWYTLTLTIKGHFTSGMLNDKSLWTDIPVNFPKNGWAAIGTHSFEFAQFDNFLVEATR", "assay": "A Novel Cell-Based Assay to Identify Small Molecules for B -Galactocerebrosidase; also: 0% is about no effect; nearly all actives have a fitted effect of over 65% in size", "settings": "145M-Twi-hGALC-G270D cells (Twitcher mouse brain line with human GALC G270D), HMU-beta-Gal fluorescence, 48 h; series mostly up to 57.5 µM; activation: at the top concentration", "source_text": "Lysosomal storage diseases (LSDs) are caused by genetic mutations in genes encoding proteins important for normal lysosomal function. Globoid cell leukodystrophy (GLD), mostly known as Krabbe disease, is a prototype of the neurological LSDs caused by deficiency of beta-galactocerebrosidase (GALC). In brain specimens of GLD patients, psychosine levels are substantially elevated. At elevated concentrations, psychosine becomes cytotoxic to neuronal cells, particularly to oligodendrocytes (OLG), neural cells responsible for myelin formation. Therefore, the biochemical disturbances in GLD are manifested by different degrees of brain demyelination resulting in a broad spectrum of neurological manifestations. Most of the FDA-approved therapies are based on enzyme replacement therapeutic (ERT) agents, which treat non-neurological symptoms of Gaucher disease, Fabry disease, few mucopolysaccharidoses and Pompe disease. Unfortunately, in GLD, a primarily neurological LSD, ERT agents, as large molecular weight molecules unable to cross the blood-brain barrier, which makes this an inefficacious therapeutic approach. In GLD, increasing the residual GALC activity just above the critical threshold (~10% of wild type enzymatic activity), the cytotoxic levels of psychosine will be reduced, avoiding the OLGs apoptosis and the subsequent demyelination process. This will translate in disease stabilization and amelioration of GLD patient symptoms.\nA cell-based assay in 1,536-well plate format was developed to implement a quantitative high-throughput screening (qHTS) assay using GLD-disease relevant cells to identify small molecules that produce enhancements of the residual enzymatic activity levels of mutants GALC found and prevalent in GLD patients. Compounds that are active may therefore have some therapeutic application for GLD. After the treatment of live cells for a determined period, using a fluorescent GALC specific substrate, the mutant residual GALC activity is measured. This cell-based qTHS assay was used to screen part of the MLPCN library for small molecule able to increase the mutant GALC enzymatic activity. In this assay, increased fluorescent signal corresponds to enhanced levels of mutant GALC residual enzymatic activity. Activation is the desired outcome for this assay.\nNIH Chemical Genomics Center [NCGC]\nNIH Molecular Libraries Probe Centers Network [MLPCN]\nAssay Submitter (PI): Gustavo Maegawa MD,PhD, University of Florida, Gainesville, FL\n2)#Two cell lines were established for the assay: 145M-Twi-hGALC-G270D (brain-derived Twitcher cell line stably expressing human GALC-G270D) and 145M-Twi-hGALC-WT (same 145M-Twi stably expressing human GALC wild type). The Twitcher is the murine C57B/6 model for GLD with naturally occurring homozygous nonsense GALC mutation. The 145M-Twi cell line was established at Maegawa lab (Ribbens J et al 2014).\na.#Media: DMEM/F12 (1:1) with 10% fetal bovine-serum (FBS) with penicillin/streptomycin (PS-1X - 100 I.U./mL of penicillin+100 ug/mL of streptomycin).\nb.#The 6-Hexadecanoylamino-4-methylumbelliferyl-b-D-galactoside (HMU-B-gal) substrate was prepared as per Wiederschain et al 1992. Using 20-mL borosilicate tubes, 2.20 mg of HMU-b-Gal was added in each tube to prepare substrate-film with a final air-nitrogen stream evaporation to remove all diluent solvents.\nc.#The HMUb-Gal substrate buffer consists of 0.2 M Na2HPO4 (sodium phosphate dibasic)/ 0.1 M Citric Acid with the pH adjusted to 5.2 using HCl. Sodium Azide at 0.02% and Sodium Taurocholate (NaTC) at 1 mg/mL were added to this substrate buffer.\nd.#The HMU-b-Gal stopping buffer consist of 0.5 M NaHCO3 (sodium bicarbonate) /0.5 M Na2CO3 (sodium carbonate). […] Triton X-100 at 0.25% was added.\n4)#Preparation of HMU-b-Gal substrate tubes\nAdding 18.6 mL of the HMUb-Gal substrate buffer to each 20-mL tube (2.20 mg of HMU-b-Gal) will reach a concentration of 0.2 mM. Vortex well the tube until the solution is fully homogenized (clear cloudy solution). […]", "values": [
      {"molecule": "Cc1nn(-c2ccccc2)c(OC(=O)C(C)(C)C)c1Sc1ccccc1", "activation": "inactive: -18.8%"},
      {"molecule": "Cc1ccc2nc(NCCc3ccccc3)c3nncn3c2c1", "activation": "inactive: -9.89%"},
      {"molecule": "Cc1ccc(Cn2c(SCc3ccc(C(=O)NC4CCCC4)cc3)nc3ccncc32)cc1", "activation": "inactive: -17.3%"},
      {"molecule": "CCn1c(=O)cc(OCC(=O)Nc2ccc(C)c(F)c2)c2ccccc21", "activation": "inactive: -9.75%"},
      {"molecule": "O=c1oc2ccccc2cc1-c1cn2cc(Cc3ccccc3F)sc2n1", "activation": "inactive: -9.53%"},
      {"molecule": "CCc1ccc(-n2c(=O)c3cccnc3n2CC(=O)Nc2ccccc2C(F)(F)F)cc1", "activation": "inactive: -23.3%"},
      {"molecule": "N#Cc1c(NC(=O)CS(=O)(=O)c2ccc(Cl)cc2)sc2c1CCCCC2", "activation": "inactive: -14.3%"},
      {"molecule": "COc1ccc(-c2cn3c(n2)sc2cc(C(=O)Nc4cc(OC)cc(OC)c4)ccc23)cc1", "activation": "inactive: -14.3%"},
      {"molecule": "COc1ccc(-c2ccc(CCC(=O)O)n2CC(=O)Nc2cccc(C(F)(F)F)c2)cc1", "activation": "inactive: -14.4%"},
      {"molecule": "CCCC(=O)c1ccc(OC(=O)c2c(-c3ccccc3Cl)noc2C)cc1", "activation": "inactive: -13.2%"},
      {"molecule": "Cc1nnc(NC(=O)C(=O)c2cc(C)n(-c3ccc(C)c(C)c3)c2C)s1", "activation": "inactive: -30.7%"},
      {"molecule": "Cc1ccc(C(=O)Nc2ccc3oc(-c4ccncc4)nc3c2)c(Cl)c1", "activation": "inactive: -19.6%"},
      {"molecule": "Cc1cccc(-n2c(=O)c3c(c4cc(C)ccc4n3C)n(CC(=O)Nc3ccc(C)cc3C)c2=O)c1", "activation": "inactive: -4.98%"},
      {"molecule": "COc1cc(-c2cc(OC)c3c(C)oc(C)c3c(=O)c2)ccc1OC(=O)c1ccccc1F", "activation": "inactive: -16.5%"},
      {"molecule": "CCOc1ccc(-c2cc(C(=O)NCCc3ccc(Cl)cc3)c3ccccc3n2)cc1", "activation": "inactive: -20.7%"},
      {"molecule": "COc1ccccc1-c1nc(CNC(=O)Nc2ccccc2)c(C)o1", "activation": "inactive: 1.06%"},
      {"molecule": "COc1ccccc1C(=O)NC1=NC(c2ccc(Br)cc2)CC(=O)N1", "note": "(configuration not stated)", "activation": "inactive: -3.54%"},
      {"molecule": "COc1ccc(N2CCN(C(=O)c3ccc4c(Cl)c5c(nc4c3)CCCC5)CC2)cc1", "activation": "inactive: -12.3%"},
      {"molecule": "CCOC(=O)c1c(NC(C)=O)c2c3c(sc2n1Cc1nc(-c2cccc(C)c2)oc1C)CCCC3", "activation": "inactive: -8.13%"},
      {"molecule": "CCCCCCNC(=O)n1cc(F)c(=O)[nH]c1=O", "activation": "inactive: -17.8%"},
      {"molecule": "COc1ccc(CN2C(=O)N(c3ccc(C)cc3)C(=O)C2CC(=O)Nc2ccccc2)cc1OC", "note": "(configuration not stated)", "activation": "inactive: -12.3%"},
      {"molecule": "O=[N+]([O-])c1cc(-c2nc(-c3ccccc3)no2)ccc1NC1CCCC1", "activation": "inactive: 3.66%"},
      {"molecule": "CCCn1c2ccccc2c2cnn(CC(=O)NCCc3ccc(C)cc3)c(=O)c21", "activation": "inactive: 1.59%"},
      {"molecule": "Cc1ccc(Cl)cc1NC(=O)C1CCN(c2nc3ccccc3n3cccc23)CC1", "activation": "inactive: 1.18%"},
      {"molecule": "CCOc1ccc2nc(N3CCCC(C(=O)NCc4ccccc4OC)C3)sc2c1", "note": "(configuration not stated)", "activation": "inactive: -5.56%"},
      {"molecule": "Cc1nnc2c3ccccc3nc(Nc3cccc(O)c3)n12", "activation": "inactive: -5.11%"},
      {"molecule": "CCCCOC(=O)c1ccc(Nc2nnc(-n3nc(C)cc3C)c3ccccc23)cc1", "activation": "inactive: 6.51%"},
      {"molecule": "COc1ccc(-c2noc(CN(C(=O)c3cc(OC)c(OC)cc3OC)C(C)C)n2)cc1", "activation": "inactive: 18%"},
      {"molecule": "COc1cc(C2C(C(=O)Nc3ccccc3)=C(C)Nc3nnnn32)cc(OC)c1OC", "note": "(configuration not stated)", "activation": "inactive: -2.9%"},
      {"molecule": "O=C(NC1CC(=O)N(c2ccc(Cl)cc2)C1)c1ccc(S(=O)(=O)N2CCOCC2)cc1", "note": "(configuration not stated)", "activation": "inactive: -3.7%"},
      {"molecule": "CCOC(=O)c1ccc(NC(=O)c2nc(SCc3ccccc3F)ncc2Cl)cc1", "activation": "inactive: -9.06%"},
      {"molecule": "COc1ccc(-c2noc(CSc3nc(N)cc(=O)[nH]3)n2)cc1OC", "activation": "inactive: -12%"},
      {"molecule": "CCc1nn(CC(=O)NCCCOC)c(=O)c2cc3ccccc3n12", "activation": "inactive: -8.11%"},
      {"molecule": "Cc1ccc(CN2CCCn3nc(C(=O)NCC(C)c4ccccc4)cc3C2=O)cc1", "note": "(configuration not stated)", "activation": "inactive: -1.83%"},
      {"molecule": "COCCn1c(=O)[nH]c2cc(C(=O)Nc3cccc(C(C)=O)c3)ccc2c1=O", "activation": "inactive: -4.16%"},
      {"molecule": "COc1ccc(Nc2oc(/C=C/c3ccc(OC)c(OC)c3)nc2C#N)cc1", "activation": "inactive: -17.4%"},
      {"molecule": "CC(=O)Nc1ccn(C2COC(COC(=O)c3ccccc3)O2)c(=O)n1", "note": "(configuration not stated)", "activation": "inactive: -7.01%"},
      {"molecule": "Cc1cc(C)c2oc(C(=O)Nc3ccc(S(=O)(=O)Nc4nccc(C)n4)cc3)cc(=O)c2c1", "activation": "inactive: -7.07%"},
      {"molecule": "CCOc1ccc(S(=O)(=O)Nc2cc(Cl)ccc2OC)c2cccnc12", "activation": "inactive: -33.7%"},
      {"molecule": "Cc1ccc(/C=C/c2onc(C)c2S(=O)(=O)N2CCC(C(=O)Nc3cc(F)ccc3F)CC2)cc1", "activation": "inactive: -0.706%"},
      {"molecule": "COc1ccc2oc(-c3cccc(NC(=O)c4sc5c([N+](=O)[O-])cccc5c4Cl)c3)nc2c1", "activation": "inactive: 2.04%"},
      {"molecule": "Cc1cccc(C)c1Nc1c(-c2ccc(O)cc2)nc2sccn12", "activation": "inactive: 5.9%"},
      {"molecule": "O=c1oc2ccccc2cc1-c1cn2cc(Cc3ccc(Br)cc3)sc2n1", "activation": "inactive: 2.17%"},
      {"molecule": "O=c1c2sc3ccccc3c2n(Cc2cccc(C(F)(F)F)c2)c(=O)n1Cc1ccc(F)cc1", "activation": "inactive: -5.98%"},
      {"molecule": "Cc1cc(C)cc(-n2ccn(Cc3ccc(F)cc3)c(=O)c2=O)c1", "activation": "inactive: -2.13%"},
      {"molecule": "CCOc1ccc(S(=O)(=O)NCCc2sc3nc(-c4ccc(C)cc4)nn3c2C)cc1", "activation": "inactive: -13.4%"},
      {"molecule": "CCCn1c(CCC(=O)Nc2ccccc2OC)nc2cccnc21", "activation": "inactive: -15%"}
    ]}
  ]
}
